# Test results published in publication PMC12820563, “FoxP3 forms a head-to-head dimer in vivo and stabilizes its multimerization on adjacent microsatellites”.
# Some of the results follow.
# Target: T1, MBP-FoxP1dN (Mus musculus, UniProt P58462 326-579)
# T1 sequence: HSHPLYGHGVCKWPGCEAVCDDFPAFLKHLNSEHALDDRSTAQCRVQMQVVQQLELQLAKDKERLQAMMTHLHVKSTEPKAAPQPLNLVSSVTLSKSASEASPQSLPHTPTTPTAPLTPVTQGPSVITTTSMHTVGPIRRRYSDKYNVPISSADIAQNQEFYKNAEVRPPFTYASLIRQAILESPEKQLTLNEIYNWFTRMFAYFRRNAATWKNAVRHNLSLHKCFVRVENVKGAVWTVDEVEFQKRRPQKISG
# Experiment: PD-seq (MBP pull-down with sequencing); 20 mM Tris-HCl pH 7.5, 100 mM NaCl, 1.5 mM MgCl2, 0.4 uM protein, 0.1 uM dsDNA library, 30 min, room temperature, amylose pull-down; high values mean tight binding
# Details: protein: recombinant; tags: His6-MBP; chain copies: 2; dsDNA, one strand shown
# Outline: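 E. coli-expressed mouse FoxP3 or FoxP1 fragment, N-terminus removed and tagged with His6-MBP, was used at 0.4 µM against 0.1 µM of a Klenow-filled degenerate double-stranded DNA library. After 30 min at room temperature in Tris pH 7.5 buffer with NaCl and MgCl2, complexes were pulled down on amylose resin and washed three times. Binding is pull-down over input reads-per-million enrichment from pooled replicates of the proteinase K-released, PCR-barcoded, Illumina-sequenced DNA.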
row,Sequence,binding signal
1,GATGATTGTTCTCCCAGCTGATGAATTAGTATACTCGAGTAAACAAATTTTCCTAATCTTTCTGTTCAAGCGCCATCTAC,1.23 RPM ratio (pull-down/input)
2,GATGATTGTTCTCCCAGCTGATGAATTACGAAGCTCGAGTAAACAAATTTTCCTAATCTTTCTGTTCAAGCGCCATCTAC,0.887 RPM ratio (pull-down/input)
3,GATGATTGTTCTCCCAGCTGATGAATTTCGGACCTCGAGTAAACAAATTTTCCTAATCTTTCTGTTCAAGCGCCATCTAC,0.742 RPM ratio (pull-down/input)
4,GATGATTGTTCTCCCAGCTGATGAATTAAGACCTTCGAGTAAACAAATTTTCCTAATCTTTCTGTTCAAGCGCCATCTAC,0.838 RPM ratio (pull-down/input)
5,GATGATTGTTCTCCCAGCTGATGAATTCGTCCGCTCGAGTAAACAAATTTTCCTAATCTTTCTGTTCAAGCGCCATCTAC,0.79 RPM ratio (pull-down/input)
6,GATGATTGTTCTCCCAGCTGATGAATTGAGTCTCTCGAGTAAACAAATTTTCCTAATCTTTCTGTTCAAGCGCCATCTAC,0.782 RPM ratio (pull-down/input)
7,GATGATTGTTCTCCCAGCTGATGAATTCTCCGAGTCGAGTAAACAAATTTTCCTAATCTTTCTGTTCAAGCGCCATCTAC,0.774 RPM ratio (pull-down/input)
8,GATGATTGTTCTCCCAGCTGATGAATTCTCTAGTTCGAGTAAACAAATTTTCCTAATCTTTCTGTTCAAGCGCCATCTAC,0.948 RPM ratio (pull-down/input)
9,GATGATTGTTCTCCCAGCTGATGAATTCGACGGCTCGAGTAAACAAATTTTCCTAATCTTTCTGTTCAAGCGCCATCTAC,0.78 RPM ratio (pull-down/input)
10,GATGATTGTTCTCCCAGCTGATGAATTGAAGAAGTCGAGTAAACAAATTTTCCTAATCTTTCTGTTCAAGCGCCATCTAC,0.849 RPM ratio (pull-down/input)
11,GATGATTGTTCTCCCAGCTGATGAATTGCTCTTCTCGAGTAAACAAATTTTCCTAATCTTTCTGTTCAAGCGCCATCTAC,0.889 RPM ratio (pull-down/input)
12,GATGATTGTTCTCCCAGCTGATGAATTTCGTGTGTCGAGTAAACAAATTTTCCTAATCTTTCTGTTCAAGCGCCATCTAC,0.976 RPM ratio (pull-down/input)
13,GATGATTGTTCTCCCAGCTGATGAATTAGCATCATCGAGTAAACAAATTTTCCTAATCTTTCTGTTCAAGCGCCATCTAC,1.37 RPM ratio (pull-down/input)
14,GATGATTGTTCTCCCAGCTGATGAATTGCGCCTCTCGAGTAAACAAATTTTCCTAATCTTTCTGTTCAAGCGCCATCTAC,1.13 RPM ratio (pull-down/input)
15,GATGATTGTTCTCCCAGCTGATGAATTTTTCCGGTCGAGTAAACAAATTTTCCTAATCTTTCTGTTCAAGCGCCATCTAC,0.832 RPM ratio (pull-down/input)
16,GATGATTGTTCTCCCAGCTGATGAATTCTAAAGATCGAGTAAACAAATTTTCCTAATCTTTCTGTTCAAGCGCCATCTAC,0.85 RPM ratio (pull-down/input)
17,GATGATTGTTCTCCCAGCTGATGAATTACAGAGGTCGAGTAAACAAATTTTCCTAATCTTTCTGTTCAAGCGCCATCTAC,0.951 RPM ratio (pull-down/input)
18,GATGATTGTTCTCCCAGCTGATGAATTCTGACTGTCGAGTAAACAAATTTTCCTAATCTTTCTGTTCAAGCGCCATCTAC,0.811 RPM ratio (pull-down/input)
19,GATGATTGTTCTCCCAGCTGATGAATTTCCTCGTTCGAGTAAACAAATTTTCCTAATCTTTCTGTTCAAGCGCCATCTAC,0.899 RPM ratio (pull-down/input)
20,GATGATTGTTCTCCCAGCTGATGAATTAACAGCCTCGAGTAAACAAATTTTCCTAATCTTTCTGTTCAAGCGCCATCTAC,0.996 RPM ratio (pull-down/input)
21,GATGATTGTTCTCCCAGCTGATGAATTCTTCAGCTCGAGTAAACAAATTTTCCTAATCTTTCTGTTCAAGCGCCATCTAC,0.854 RPM ratio (pull-down/input)

row,Sequence,binding signal
1,GATGATTGTTCTCCCAGCTGATGAATTATATTTATCGAGTAAACAAATTTTCCTAATCTTTCTGTTCAAGCGCCATCTAC,2.43 RPM ratio (pull-down/input)
2,GATGATTGTTCTCCCAGCTGATGAATTACCGTCGTCGAGTAAACAAATTTTCCTAATCTTTCTGTTCAAGCGCCATCTAC,0.955 RPM ratio (pull-down/input)
3,GATGATTGTTCTCCCAGCTGATGAATTTCATGTCTCGAGTAAACAAATTTTCCTAATCTTTCTGTTCAAGCGCCATCTAC,0.774 RPM ratio (pull-down/input)
4,GATGATTGTTCTCCCAGCTGATGAATTGTACAAATCGAGTAAACAAATTTTCCTAATCTTTCTGTTCAAGCGCCATCTAC,1.35 RPM ratio (pull-down/input)
5,GATGATTGTTCTCCCAGCTGATGAATTCCAAGGGTCGAGTAAACAAATTTTCCTAATCTTTCTGTTCAAGCGCCATCTAC,0.669 RPM ratio (pull-down/input)
6,GATGATTGTTCTCCCAGCTGATGAATTACCTCTGTCGAGTAAACAAATTTTCCTAATCTTTCTGTTCAAGCGCCATCTAC,0.836 RPM ratio (pull-down/input)
7,GATGATTGTTCTCCCAGCTGATGAATTGTGCACATCGAGTAAACAAATTTTCCTAATCTTTCTGTTCAAGCGCCATCTAC,1.23 RPM ratio (pull-down/input)
8,GATGATTGTTCTCCCAGCTGATGAATTATCGGTCTCGAGTAAACAAATTTTCCTAATCTTTCTGTTCAAGCGCCATCTAC,0.857 RPM ratio (pull-down/input)
9,GATGATTGTTCTCCCAGCTGATGAATTTACGCTGTCGAGTAAACAAATTTTCCTAATCTTTCTGTTCAAGCGCCATCTAC,1.29 RPM ratio (pull-down/input)
10,GATGATTGTTCTCCCAGCTGATGAATTCAGCTTTTCGAGTAAACAAATTTTCCTAATCTTTCTGTTCAAGCGCCATCTAC,0.882 RPM ratio (pull-down/input)
11,GATGATTGTTCTCCCAGCTGATGAATTCCGGACATCGAGTAAACAAATTTTCCTAATCTTTCTGTTCAAGCGCCATCTAC,0.818 RPM ratio (pull-down/input)
12,GATGATTGTTCTCCCAGCTGATGAATTTGTGAGGTCGAGTAAACAAATTTTCCTAATCTTTCTGTTCAAGCGCCATCTAC,1.05 RPM ratio (pull-down/input)
13,GATGATTGTTCTCCCAGCTGATGAATTTCCACATTCGAGTAAACAAATTTTCCTAATCTTTCTGTTCAAGCGCCATCTAC,0.883 RPM ratio (pull-down/input)
14,GATGATTGTTCTCCCAGCTGATGAATTACGACGATCGAGTAAACAAATTTTCCTAATCTTTCTGTTCAAGCGCCATCTAC,1.01 RPM ratio (pull-down/input)
15,GATGATTGTTCTCCCAGCTGATGAATTGTTTTTCTCGAGTAAACAAATTTTCCTAATCTTTCTGTTCAAGCGCCATCTAC,2.22 RPM ratio (pull-down/input)
16,GATGATTGTTCTCCCAGCTGATGAATTCAAAATATCGAGTAAACAAATTTTCCTAATCTTTCTGTTCAAGCGCCATCTAC,1.45 RPM ratio (pull-down/input)
17,GATGATTGTTCTCCCAGCTGATGAATTAAATATATCGAGTAAACAAATTTTCCTAATCTTTCTGTTCAAGCGCCATCTAC,1.09 RPM ratio (pull-down/input)
18,GATGATTGTTCTCCCAGCTGATGAATTTGACCCGTCGAGTAAACAAATTTTCCTAATCTTTCTGTTCAAGCGCCATCTAC,0.761 RPM ratio (pull-down/input)
19,GATGATTGTTCTCCCAGCTGATGAATTAACCCGTTCGAGTAAACAAATTTTCCTAATCTTTCTGTTCAAGCGCCATCTAC,0.945 RPM ratio (pull-down/input)
20,GATGATTGTTCTCCCAGCTGATGAATTTCAGTTCTCGAGTAAACAAATTTTCCTAATCTTTCTGTTCAAGCGCCATCTAC,0.791 RPM ratio (pull-down/input)
21,GATGATTGTTCTCCCAGCTGATGAATTCTCGTAATCGAGTAAACAAATTTTCCTAATCTTTCTGTTCAAGCGCCATCTAC,1.32 RPM ratio (pull-down/input)

row,Sequence,binding signal
1,GATGATTGTTCTCCCAGCTGATGAATTTAGATTTTCGAGTAAACAAATTTTCCTAATCTTTCTGTTCAAGCGCCATCTAC,1.08 RPM ratio (pull-down/input)
2,GATGATTGTTCTCCCAGCTGATGAATTTACAAGTTCGAGTAAACAAATTTTCCTAATCTTTCTGTTCAAGCGCCATCTAC,1.47 RPM ratio (pull-down/input)
3,GATGATTGTTCTCCCAGCTGATGAATTCATTGCATCGAGTAAACAAATTTTCCTAATCTTTCTGTTCAAGCGCCATCTAC,1.24 RPM ratio (pull-down/input)
4,GATGATTGTTCTCCCAGCTGATGAATTACCCCCTTCGAGTAAACAAATTTTCCTAATCTTTCTGTTCAAGCGCCATCTAC,0.911 RPM ratio (pull-down/input)
5,GATGATTGTTCTCCCAGCTGATGAATTACTTTGGTCGAGTAAACAAATTTTCCTAATCTTTCTGTTCAAGCGCCATCTAC,0.952 RPM ratio (pull-down/input)
6,GATGATTGTTCTCCCAGCTGATGAATTGGAAGTTTCGAGTAAACAAATTTTCCTAATCTTTCTGTTCAAGCGCCATCTAC,0.867 RPM ratio (pull-down/input)
7,GATGATTGTTCTCCCAGCTGATGAATTATTGTAGTCGAGTAAACAAATTTTCCTAATCTTTCTGTTCAAGCGCCATCTAC,1.36 RPM ratio (pull-down/input)
8,GATGATTGTTCTCCCAGCTGATGAATTATATGAATCGAGTAAACAAATTTTCCTAATCTTTCTGTTCAAGCGCCATCTAC,1.03 RPM ratio (pull-down/input)
9,GATGATTGTTCTCCCAGCTGATGAATTATATACGTCGAGTAAACAAATTTTCCTAATCTTTCTGTTCAAGCGCCATCTAC,1.19 RPM ratio (pull-down/input)
10,GATGATTGTTCTCCCAGCTGATGAATTAAGGGCCTCGAGTAAACAAATTTTCCTAATCTTTCTGTTCAAGCGCCATCTAC,0.879 RPM ratio (pull-down/input)
11,GATGATTGTTCTCCCAGCTGATGAATTCGTGGAATCGAGTAAACAAATTTTCCTAATCTTTCTGTTCAAGCGCCATCTAC,0.925 RPM ratio (pull-down/input)
12,GATGATTGTTCTCCCAGCTGATGAATTTCGTAAGTCGAGTAAACAAATTTTCCTAATCTTTCTGTTCAAGCGCCATCTAC,0.932 RPM ratio (pull-down/input)
13,GATGATTGTTCTCCCAGCTGATGAATTGGTTCGTTCGAGTAAACAAATTTTCCTAATCTTTCTGTTCAAGCGCCATCTAC,0.942 RPM ratio (pull-down/input)
14,GATGATTGTTCTCCCAGCTGATGAATTCAAGACCTCGAGTAAACAAATTTTCCTAATCTTTCTGTTCAAGCGCCATCTAC,0.724 RPM ratio (pull-down/input)
15,GATGATTGTTCTCCCAGCTGATGAATTGGCCGTTTCGAGTAAACAAATTTTCCTAATCTTTCTGTTCAAGCGCCATCTAC,0.865 RPM ratio (pull-down/input)
16,GATGATTGTTCTCCCAGCTGATGAATTCACAAGATCGAGTAAACAAATTTTCCTAATCTTTCTGTTCAAGCGCCATCTAC,0.88 RPM ratio (pull-down/input)
17,GATGATTGTTCTCCCAGCTGATGAATTTCGAAATTCGAGTAAACAAATTTTCCTAATCTTTCTGTTCAAGCGCCATCTAC,0.918 RPM ratio (pull-down/input)
18,GATGATTGTTCTCCCAGCTGATGAATTGCCCGTCTCGAGTAAACAAATTTTCCTAATCTTTCTGTTCAAGCGCCATCTAC,0.875 RPM ratio (pull-down/input)
19,GATGATTGTTCTCCCAGCTGATGAATTCATCCCTTCGAGTAAACAAATTTTCCTAATCTTTCTGTTCAAGCGCCATCTAC,0.859 RPM ratio (pull-down/input)
20,GATGATTGTTCTCCCAGCTGATGAATTACCACTGTCGAGTAAACAAATTTTCCTAATCTTTCTGTTCAAGCGCCATCTAC,1.01 RPM ratio (pull-down/input)
21,GATGATTGTTCTCCCAGCTGATGAATTGAAGCGATCGAGTAAACAAATTTTCCTAATCTTTCTGTTCAAGCGCCATCTAC,0.853 RPM ratio (pull-down/input)
